This note sets out measurements from publication PMC4336329 (PLoS ONE, 2015).

Among all 310,000 compounds or so, about 2,200 (0.71%) showed an effect of 50% or more. The effect is printed as a negative number. The list shows a part of the results.

Sequence of human ether-à-go-go-related gene (hERG) potassium channel (Q12809 whole entry, looked up): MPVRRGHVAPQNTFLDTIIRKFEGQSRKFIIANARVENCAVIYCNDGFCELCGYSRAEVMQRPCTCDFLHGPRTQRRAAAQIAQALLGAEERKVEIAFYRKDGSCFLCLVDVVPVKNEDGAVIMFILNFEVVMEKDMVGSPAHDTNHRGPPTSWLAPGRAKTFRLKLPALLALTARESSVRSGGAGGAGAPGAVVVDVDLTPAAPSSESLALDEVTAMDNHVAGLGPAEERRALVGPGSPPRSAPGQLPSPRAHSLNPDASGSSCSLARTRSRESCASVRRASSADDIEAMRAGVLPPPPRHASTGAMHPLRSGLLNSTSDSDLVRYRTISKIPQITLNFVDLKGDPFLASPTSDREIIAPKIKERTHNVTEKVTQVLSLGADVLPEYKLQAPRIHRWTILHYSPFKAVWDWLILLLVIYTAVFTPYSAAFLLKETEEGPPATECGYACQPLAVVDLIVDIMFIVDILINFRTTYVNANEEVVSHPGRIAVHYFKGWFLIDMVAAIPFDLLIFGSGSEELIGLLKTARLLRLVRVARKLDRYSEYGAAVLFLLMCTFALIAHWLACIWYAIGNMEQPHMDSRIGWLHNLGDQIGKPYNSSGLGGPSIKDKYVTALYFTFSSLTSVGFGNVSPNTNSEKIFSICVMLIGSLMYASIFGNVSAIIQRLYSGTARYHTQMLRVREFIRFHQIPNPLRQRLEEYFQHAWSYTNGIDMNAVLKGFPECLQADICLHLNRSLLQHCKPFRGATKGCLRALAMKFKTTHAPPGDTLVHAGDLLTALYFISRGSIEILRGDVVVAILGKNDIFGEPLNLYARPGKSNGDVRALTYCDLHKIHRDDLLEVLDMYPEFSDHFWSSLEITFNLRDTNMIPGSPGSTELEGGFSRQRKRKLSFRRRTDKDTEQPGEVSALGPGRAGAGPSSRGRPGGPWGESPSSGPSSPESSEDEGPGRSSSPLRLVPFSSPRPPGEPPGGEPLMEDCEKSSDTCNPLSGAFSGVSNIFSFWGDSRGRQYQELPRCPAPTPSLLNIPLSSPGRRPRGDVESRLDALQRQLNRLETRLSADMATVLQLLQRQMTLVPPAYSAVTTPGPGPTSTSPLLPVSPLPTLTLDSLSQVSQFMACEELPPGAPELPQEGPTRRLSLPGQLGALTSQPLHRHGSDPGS

This assay addresses human ether-à-go-go-related gene (hERG) potassium channel (human, UniProt Q12809). Nature of the assay: primary screen, population patch clamp on CHO cells stably expressing hERG.
Consider `Cc1ccc(C)n1-c1sc2c(c1C#N)CCCC2`, for which the “hERG current change (%, negative = inhibition) at 1uM” value was found to be 12.5%. `CC(C)(C)NC(=O)COc1ccc(CNc2ncn[nH]2)cc1`: the “hERG current change (%, negative = inhibition) at 1uM” value stood at 10.3%. On to `O=C(O)c1cc([N+](=O)[O-])ccc1C(=O)Nc1cccc([N+](=O)[O-])c1`, for which the “hERG current change (%, negative = inhibition) at 1uM” value worked out at 9.27%.

With `CCc1nc2ccccc2c(=O)n1-c1ccccc1OC`, the “hERG current change (%, negative = inhibition) at 1uM” value came out at 7.62%. Under `Cc1ccc(NC(=O)CN2C(=O)N/C(=C/c3cccn3-c3ccc(C(=O)O)cc3)C2=O)cc1` stands 18.9%; under `CC(=O)Nc1cccc(N=NN2CCCCC2)c1`, 7.43%; under `Cc1[nH]c2ccccc2c1CCNCc1cccnc1.Cl`, 12.9%. As to `c1cncc(CN=C2Nc3ccccc3CS2)c1`, the “hERG current change (%, negative = inhibition) at 1uM” value was 6.22%. Under `COc1ccc(OC)c(Nc2ncnc3ccc(Br)cc23)c1` stands 12.3%. Under `C#CCOCCOCCOCCNc1nc(N2CCN(C(=O)[C@H]([C@@H](C)O)n3cc(CCCC[NH3+])nn3)CC2)nc(N2CCN(C(=O)[C@H]([C@@H](C)CC)n3cc(CCCC[NH3+])nn3)CC2)n1.[Cl-]` stands 14.2%; under `COCc1cc(CN2CCCC(C(=O)Nc3ccc(-c4ccco4)cc3)C2)ccc1OC` (stereo not shown), 3.79%. Under `Cc1ccc(C2(C)NC(=O)N(CC(=O)Nc3cccnc3Cl)C2=O)cc1` (stereo not shown) stands 15.2%; under `CC1(C)c2[nH]c3ccccc3c2C[C@@H]2C(=O)N(Cc3ccco3)C(=O)N21`, 0.515%. On to `COC(=O)c1sccc1-c1ccc(/C=N/OCc2c(Cl)cccc2Cl)o1`, for which the “hERG current change (%, negative = inhibition) at 1uM” value came to 0.955%. In the case of `COc1ccccc1NC(=S)N1CCOCC1` it was 16%. Take `CCCNC(=O)CC(NS(=O)(=O)c1ccc(Cl)cc1)c1ccco1` (stereo not shown): the “hERG current change (%, negative = inhibition) at 1uM” value is on record as -5.47%. `COc1ccc(OCCN2C(=O)NC3(CCc4ccccc4C3)C2=O)cc1` (stereo not shown): the “hERG current change (%, negative = inhibition) at 1uM” value is on record as -6.02%. In the case of `COc1ccc(N2C(=O)/C(=C/N(C)C)NC2=S)cc1` it was 16.8%; in that of `O=C(CSc1cccc[n+]1[O-])NN(c1ccccc1)c1ccccc1`, 13.5%.

`COc1ccccc1N1C(=O)c2ccccc2NC1c1ccc(O)cc1` (stereo not shown): the “hERG current change (%, negative = inhibition) at 1uM” value is on record as 13.1%. For the compound `COc1ccc(-c2[nH]ncc2CN(CCO)CC23CC4CC(CC(C4)C2)C3)c(OC)c1`, the “hERG current change (%, negative = inhibition) at 1uM” value is given as 11%. On to `Cl.OC(CC#CCN1CCOCC1)(c1ccccc1)c1ccccc1`, for which the “hERG current change (%, negative = inhibition) at 1uM” value worked out at 9.39%.

Regarding `CCOC(=O)c1oc2cc(O)cc(O)c2c(=O)c1OCc1ccccc1`, the “hERG current change (%, negative = inhibition) at 1uM” value was 12.8%.

Regarding `O=C(CSc1ncn[nH]1)Nc1c(Br)cc([N+](=O)[O-])cc1Br`, the “hERG current change (%, negative = inhibition) at 1uM” value is given as 8.19%. For the compound `CCOC(=O)C1CCCN(c2nc3c(C)cccn3c(=O)c2/C=C(\C#N)C(=O)NCc2ccco2)C1` (stereo not shown), the “hERG current change (%, negative = inhibition) at 1uM” value came to 4.48%. In the case of `O=C(/C=C\c1ccccc1[N+](=O)[O-])Nc1ccccc1` it was 13.6%; in that of `COc1ccc(Cl)cc1NC(=O)CC(=O)Nc1cc(Cl)ccc1OC`, 15.3%; in that of `CC(C)C(=O)NC(NC(=S)Nc1cccc2cccnc12)C(Cl)(Cl)Cl` (stereo not shown), 17.4%. For the compound `CC(C)=C1C2CCC1C1C(=O)N(CCc3ccccc3)C(=O)C21` (stereo not shown), the “hERG current change (%, negative = inhibition) at 1uM” value is recorded as 9.06%. Under `COc1ccc(-n2c(=O)c(NC(=O)c3ccccc3)c3n(c2=S)CCCCC3)cc1` stands 17.6%; under `CC(C)(C)OC(=O)N1CCC[C@H]1C(=O)Nc1ccc(Br)cc1`, 14.2%. Under `CN(C)c1ccc(/C=N/NC(=O)C(O)c2ccc(Br)cc2)cc1` (stereo not shown) stands 10.8%; under `Cc1cccc(OC(=O)n2c(=S)oc3cc(Cl)ccc32)c1`, 14.1%. Turning to `CCCn1c(SCC(=O)NC(=O)NC(C)(C)C)n[nH]c1=O`, the “hERG current change (%, negative = inhibition) at 1uM” value amounted to 18.6%. Under `CC(C)CCN1CCN(Cc2cn[nH]c2C2CCCCC2)CC1CCO` (stereo not shown) stands 12.8%; under `CC(Cc1ccsc1)NC(=O)CCc1nnc(CCc2ccccc2)o1` (stereo not shown), 15.1%. For the compound `CC(=NCCN(C)C)c1c(O)n(Cc2ccccc2)c(=O)[nH]c1=O`, the “hERG current change (%, negative = inhibition) at 1uM” value stood at 9.59%. For `Cc1onc(-c2ccccc2)c1C(=O)NCc1cccs1`, the “hERG current change (%, negative = inhibition) at 1uM” value came out at 4.18%. In the case of `Cc1ccc(S(=O)(=O)N2CCN(C(=O)COC(=O)C3CCC3)CC2)c(C)c1` it was -4.85%; in that of `COc1ccc(F)c(CN2CCC(CO)(Cc3cccc(C(F)(F)F)c3)CC2)c1`, -1.43%; in that of `N#Cc1ccc(CO/N=C/c2ccccc2)cc1`, 14.5%. For `Cc1ccc2cc(C#N)c(N3CCN(C(=O)c4cccs4)CC3)nc2c1`, the “hERG current change (%, negative = inhibition) at 1uM” value is given as -1%. In the case of `O=C(NCC(=O)N1CCCC(C(F)(F)F)C1)c1ccc(Br)o1` (stereo not shown) it was -3.27%; in that of `COc1ccccc1OCCCn1cc(C(C)=O)c2ccccc21`, 3.53%; in that of `OCC1(Cc2cccc(Cl)c2)CCCN(Cc2cnn(-c3ccccc3)c2)C1` (stereo not shown), -7.31%. Turning to `COc1ccc(NC(=O)c2cc3ccccc3oc2=O)c(OC)c1`, the “hERG current change (%, negative = inhibition) at 1uM” value came out at 20.1%. On to `COc1ccccc1NC(=O)Nc1ccc(Cl)c(S(=O)(=O)Nc2ccccc2OC)c1`, for which the “hERG current change (%, negative = inhibition) at 1uM” value is listed as 5.87%. Under `Cc1ccc2oc(C(=O)Nc3nnc(CC(C)C)s3)c(C)c2c1` stands 11.5%.

Turning to `COc1ccc(N2C3=C(CC4=C2CCCC4=O)C(=O)CCC3)cc1`, the “hERG current change (%, negative = inhibition) at 1uM” value is recorded as 3.34%. With `C/C(=N\NC(=O)C1COc2ccccc2O1)c1cc2ccccc2o1` (stereo not shown), the “hERG current change (%, negative = inhibition) at 1uM” value worked out at 15.4%. Under `Cc1cc(C(=O)N/N=C/c2cccs2)n[nH]1` stands 7.2%. Under `Cc1nc2ccccc2c(=O)n1Cc1ccc([N+](=O)[O-])cc1` stands -64.8%; under `Cc1ccc(NC(=O)CSc2nc3ccccc3c(=O)n2CCCC(=O)NCC2CCCO2)cc1` (stereo not shown), 6.07%. In the case of `O=C(CCC(=O)N1CC2C[C@@H](C1)Cn1c2cccc1=O)NCCc1ccccc1F`, the “hERG current change (%, negative = inhibition) at 1uM” value is listed as -0.0918%. With `O=C(CNC(=O)c1ccco1)OCC(=O)c1ccc2c(c1)CCCC2`, the “hERG current change (%, negative = inhibition) at 1uM” value is recorded as 8.93%. Consider `Cc1cccc(S(=O)(=O)c2c(N)n(/N=C/c3ccccc3)c3nc4ccccc4nc23)c1`, for which the “hERG current change (%, negative = inhibition) at 1uM” value is listed as 3.01%. In the case of `COn1c(-c2ccc(Cl)cc2Cl)nc2ncccc21` it was 7.52%; in that of `N#Cc1cccc(NC(=O)Cn2cnc(S(=O)(=O)N3CCCCC3)c2)c1`, 13.4%; in that of `O=C(NCCCn1ccnc1)C(=O)Nc1ccccc1`, 14.7%. Turning to `Cc1cccc(NC(=O)NN2CCN(C)CC2)c1C`, the “hERG current change (%, negative = inhibition) at 1uM” value is 17.2%.

On to `O=C(/C=C/c1ccco1)NC(=S)NNC(=O)c1ccco1`, for which the “hERG current change (%, negative = inhibition) at 1uM” value is reported as 13.5%. In the case of `COc1ccc([C@@H]2[C@@H]3C(=O)N(C(C)(C)C)C(=O)[C@@H]3[C@]3(CC(C)C)C(=O)N(c4cccc(F)c4)C(=O)N23)cc1` it was 15.3%; in that of `COc1cc(C(C)=O)ccc1OCC(=O)N(CCC1=CCCCC1)c1c(N)n(Cc2ccccc2)c(=O)[nH]c1=O`, 15.5%; in that of `COC(=O)c1sccc1NC(=O)Nc1ccc(C)cc1`, 19.5%. As to `Cc1ccccc1N1CCN(S(=O)(=O)c2nnc(NC(=O)c3ccco3)s2)CC1`, the “hERG current change (%, negative = inhibition) at 1uM” value came out at 5.64%. Regarding `CCn1cc(C(=O)O)c(=O)c2cc(S(=O)(=O)N3CCCCCC3)ccc21`, the “hERG current change (%, negative = inhibition) at 1uM” value amounted to 20.1%. For the compound `CCOCCCn1c(=S)[nH]c2cc(C(=O)N3CCN(C)CC3)ccc2c1=O`, the “hERG current change (%, negative = inhibition) at 1uM” value was -8.13%. Take `Cc1ccc(C(=O)OCC(=O)Nc2ccc3[nH]c(=O)[nH]c3c2)cc1S(=O)(=O)N1CCOCC1`: the “hERG current change (%, negative = inhibition) at 1uM” value was 8.82%.

Take `CN(C)CC(C(=O)c1ccccc1)c1ccccc1.Cl` (stereo not shown): the “hERG current change (%, negative = inhibition) at 1uM” value amounted to 1.95%. For `O=C(NC(=S)NC1CCCCCC1)c1cncc(Br)c1`, the “hERG current change (%, negative = inhibition) at 1uM” value is listed as 8.87%. As to `Cc1ccc(NC(=O)CN(C)C(=O)Cc2c(Cl)cccc2Cl)cc1`, the “hERG current change (%, negative = inhibition) at 1uM” value was determined as 13.5%.

`CC(=O)NCCc1ccc(S(=O)(=O)N(C)C2CCS(=O)(=O)C2)cc1` (stereo not shown): the “hERG current change (%, negative = inhibition) at 1uM” value is 2.98%. Consider `O=C(CSc1cccs1)Nc1ccc(Cl)cc1`, for which the “hERG current change (%, negative = inhibition) at 1uM” value came out at 13.3%. Under `CCn1c(SCC(=O)c2[nH]c(C)c(C(C)=O)c2C)nnc1-c1cccs1` stands -0.905%; under `Cc1onc(-c2c(F)cccc2Cl)c1C(=O)ONC(=O)c1ccco1`, 2.92%; under `Cc1ccc(C(=O)Nc2cccc(NC(=O)c3cccnc3)c2)cc1`, 12.7%.

Consider `Cc1ccc(NS(=O)(=O)c2ccc(-c3ccc(=O)[nH]n3)o2)cc1Cl`, for which the “hERG current change (%, negative = inhibition) at 1uM” value worked out at 15.1%. With `CC12CCC(=O)N1C(C(=O)NNC(=O)c1ccccc1Cl)CS2` (stereo not shown), the “hERG current change (%, negative = inhibition) at 1uM” value worked out at 11.9%. For the compound `COc1cc(CN2CCN(Cc3ccc(C(F)(F)F)cc3)CC2)cc(OC)c1OC.O=C(O)C(=O)O`, the “hERG current change (%, negative = inhibition) at 1uM” value is listed as -17.1%.

As for `Cc1nc2cc(Nc3ccncc3)ccc2s1`, the “hERG current change (%, negative = inhibition) at 1uM” value is recorded as -10.3%. As for `Cc1cc(C)c(S(=O)(=O)Nc2ccc(O)c(Sc3ncn[nH]3)c2)cc1C`, the “hERG current change (%, negative = inhibition) at 1uM” value turned out to be 8.49%. Under `COC(=O)c1ccc(NN=Nc2ccc(C)cc2)cc1` stands 8.95%.

Consider `Cc1ccc(N2C(=O)C(CN(C)C)C2c2ccccc2)cc1` (stereo not shown), for which the “hERG current change (%, negative = inhibition) at 1uM” value is reported as -10.2%. Regarding `O=c1[nH]c2ccccc2n1Cc1ccccc1`, the “hERG current change (%, negative = inhibition) at 1uM” value amounted to 4.42%. For `CC1=C(C(=O)Nc2ccc(Cl)cc2C(=O)N2CCC(C(N)=O)CC2)SCCO1`, the “hERG current change (%, negative = inhibition) at 1uM” value was determined as 11.6%. In the case of `O=C(N/N=C1\CC(c2ccccc2)Oc2ccccc21)c1cccnc1` (stereo not shown) it was 5.08%. Under `O=C(O)c1ccc(/C=N/NC(=O)c2ccc(NS(=O)(=O)c3cccs3)cc2)cc1` stands 13.8%; under `O=C(c1cccc(Cl)c1)N1CCN(c2ccccn2)CC1`, 0.407%.
